Reference: the supplement of paper PMC3334620
The full ranking holds about 33,000 sequences; the median of “E-score (-0.5 to 0.5)” is about -0.053, and the highest 2% start at about 0.37. Some of the results follow.

Biological target: Hap1 (UniProt P0CE41)
Test: PBM E-score (8-mer binding enrichment) (E-score (-0.5 to 0.5)); higher = stronger / more preferred TF binding; most listed sequences are background and not binding sites
Conditions: protein concentration: 200 nM; construct: GST-DNA-binding domain
Procedure, shortened: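 Masliner-normalised scans of fluorescent anti-GST signal were the basis for scoring. That signal came from GST-tagged yeast transcription factors applied at about 100-200 nM to double-stranded universal all-10-mer Agilent arrays on fresh or once-stripped slides. Each ungapped eight-base word, pooled with its reverse complement, received an E-score from the Universal PBM Analysis Suite.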

Sequence of UniProt P0CE41 (P0CE41 whole entry): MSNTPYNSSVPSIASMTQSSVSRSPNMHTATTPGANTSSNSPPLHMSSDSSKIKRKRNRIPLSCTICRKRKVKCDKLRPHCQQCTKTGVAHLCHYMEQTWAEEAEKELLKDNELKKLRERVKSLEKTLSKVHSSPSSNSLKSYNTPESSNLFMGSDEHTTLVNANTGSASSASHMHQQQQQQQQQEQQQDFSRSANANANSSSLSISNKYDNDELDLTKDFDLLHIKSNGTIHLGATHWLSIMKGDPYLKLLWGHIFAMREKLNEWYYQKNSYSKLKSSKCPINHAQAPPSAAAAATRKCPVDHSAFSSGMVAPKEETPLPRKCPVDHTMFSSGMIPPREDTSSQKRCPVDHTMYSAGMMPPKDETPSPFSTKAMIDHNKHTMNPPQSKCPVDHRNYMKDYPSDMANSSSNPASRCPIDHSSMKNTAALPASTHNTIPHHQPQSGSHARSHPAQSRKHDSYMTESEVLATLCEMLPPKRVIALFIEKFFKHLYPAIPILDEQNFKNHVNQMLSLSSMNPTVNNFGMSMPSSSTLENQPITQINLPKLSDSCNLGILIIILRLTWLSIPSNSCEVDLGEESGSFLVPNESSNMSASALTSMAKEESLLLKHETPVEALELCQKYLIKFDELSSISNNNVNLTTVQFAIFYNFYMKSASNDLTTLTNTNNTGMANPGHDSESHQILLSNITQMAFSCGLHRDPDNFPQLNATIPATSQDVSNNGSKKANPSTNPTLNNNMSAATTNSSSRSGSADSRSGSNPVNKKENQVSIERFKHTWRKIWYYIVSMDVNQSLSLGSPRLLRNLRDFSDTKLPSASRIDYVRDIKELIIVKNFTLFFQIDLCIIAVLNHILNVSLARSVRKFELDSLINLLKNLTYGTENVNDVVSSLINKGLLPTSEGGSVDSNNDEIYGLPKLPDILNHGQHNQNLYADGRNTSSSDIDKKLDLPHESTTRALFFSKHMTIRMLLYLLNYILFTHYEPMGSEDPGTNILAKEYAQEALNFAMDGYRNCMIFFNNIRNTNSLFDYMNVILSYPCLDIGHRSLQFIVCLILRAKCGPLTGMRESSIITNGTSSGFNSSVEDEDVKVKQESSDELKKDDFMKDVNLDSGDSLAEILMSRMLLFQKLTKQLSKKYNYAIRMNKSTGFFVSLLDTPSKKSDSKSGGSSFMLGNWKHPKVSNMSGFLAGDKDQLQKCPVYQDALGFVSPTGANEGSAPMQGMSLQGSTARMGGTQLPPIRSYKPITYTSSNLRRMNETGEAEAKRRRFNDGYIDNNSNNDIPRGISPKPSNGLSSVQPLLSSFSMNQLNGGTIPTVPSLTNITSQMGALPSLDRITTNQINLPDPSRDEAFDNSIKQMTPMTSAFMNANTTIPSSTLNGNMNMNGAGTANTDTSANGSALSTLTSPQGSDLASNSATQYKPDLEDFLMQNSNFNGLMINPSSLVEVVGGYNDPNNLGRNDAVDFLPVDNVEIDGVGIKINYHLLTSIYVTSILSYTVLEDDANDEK

Sequence	PBM E-score
AGGATAAA	-0.06
ACCAACGC	-0.0165
AGGAAACA	-0.0825
CTGATGGC	-0.0489
GTATTCTA	-0.104
ATTGTTAG	-0.0403
AATTTGTA	0.0347
TAGCTCGA	-0.073
CCTTCTGC	-0.102
GACGACCA	-0.0295
AATCAGCA	-0.187
ACAACATA	-0.0725
CTCTAAGA	-0.0595
GACTCAAA	-0.155
AACGCTCA	-0.116
CCACTTAG	-0.282
CCTGCCCC	-0.134
CTATTATC	0.135
CAAACACC	0.14
ATTCCGGC	0.37
CAATCTGC	-0.0403
CAGCGTCC	0.0998
GATGAGTA	-0.224
CAAAACCA	-0.122
ATAAGTGC	-0.0362

Sequence	PBM E-score
GAATCTTA	-0.0297
GATTCACA	-0.0399
AAAACCTG	-0.221
GTCTCAAA	-0.231
GTGGCTGA	0.0292
GTAGGGAA	0.00784
GTCTTACA	-0.195
ACAGCTTC	-0.173
CGGGATGA	0.195
CAGTTTAG	-0.143
CAAACCTC	-0.113
CCCTCGTC	-0.094
CGTCCTGA	-0.211
CTCAAAAC	-0.109
ATGGCTAA	-0.052
ATAGCTAA	-0.311
AAACGCGG	0.21
AAGATTCT	-0.258
GGATGTAC	0.0389
GTTCACGA	-0.0841
CTCTACAG	-0.311
CAGTTCTA	-0.23
AGCGACCA	-0.158
CTCTGAAA	-0.0778
ATTAAGCC	0.285

Sequence	PBM E-score
CGTTAGTC	0.15
ATCTCCCG	0.263
ACTAGGAA	-0.115
CCGCCGAC	0.187
GCAAATGC	-0.193
ATCGAATC	0.0511
CGGACGTA	0.443
AATTAGGT	-0.0351
GCCTCAGC	-0.159
AATTATGC	0.0245
CATCTATA	-0.00933
GAGCAGTA	0.112
CCGCCCGG	0.411
AATGATCA	-0.179
GCATTCGC	-0.0182
CTACTTTA	-0.135
CTCGTGTC	-0.169
AGCCAGCA	-0.268
TGAGTCAA	-0.187
AACGGTAC	0.143
GAATACAA	0.0477
AGCGAAAT	0.108
GCGAAAGA	-0.0968
GACAAAAA	0.0716
CGTTGCGC	0.0555

Sequence	PBM E-score
ATTGGCTC	-0.126
ATCGGGGG	0.349
CGAAGGTC	0.0358
ACGCCCTC	-0.0435
ATACTTGG	-0.0801
GGGGAGTA	0.00322
AATGGGTG	-0.0614
ATCTATGG	-0.0553
GTGTCAAA	-0.0351
AAAGGCCG	0.363
ACGAGACA	-0.0645
ACTGTTCT	-0.143
ATCAGTCG	-0.0278
CATTAACC	0.0537
CCTACGTC	-0.0359
ATGAATTA	-0.159
AAAACCAA	-0.0285
ATTCACTC	-0.183
CATTCCCG	0.265
ACATGTCC	0.212
AAAAGCTT	0.0731
CAGTACAA	-0.0799
GTACGGGA	0.0238
AATCTCAC	-0.189
CCATTGGG	-0.272

Sequence	PBM E-score
GGCAGTAC	-0.0918
ATTTCAAG	-0.234
AAGAGAGA	-0.37
GCCGGTAC	0.293
GTATACAA	-0.0407
GCGCATCC	0.108
AATTTAAG	-0.164
AATTCCAG	0.134
CATCCTCA	-0.154
CAGTGATA	-0.0411
AAATGCCC	-0.12
ACCTTCCG	0.203
CTATTAGC	0.0383
ACGATTTG	-0.182
AACTGGGT	-0.0515
AATTTTAA	-0.0253
GGTTCGCA	-0.0395
CTGGCTTA	-0.171
CTGTACCC	0.08
GGTAAAGA	0.00264
AATGAGTA	0.19
ATAGCCAA	-0.0355
GCGGTGCA	-0.137
ATTAAATG	-0.00564
CGTCTGAA	-0.284

Sequence	PBM E-score
AATGGCCT	0.126
GGATGGAA	-0.0393
ATCAGCAG	-0.0294
ACAGCGTC	0.0618
AGGAGCCT	-0.239
CACTGGAG	-0.25
ACATCCGG	0.427
GCTTGGGA	-0.149
CGGACGCC	0.278
CATTTTCA	0.0219
ACACTCCC	-0.0304
CAGGAATA	-0.0925
GGTCCGTA	0.329
CCAAGTTA	-0.153
TTCCGAAA	0.363
ATTTAATC	0.153
CGGACCTA	0.425
GGAATAAA	0.154
GGGTCCAA	0.15
ATCATAAA	-0.13
TAAGTACA	-0.0628
CTTAATTA	-0.0417
CAGACTAC	-0.287
CAACCTTA	-0.223
ATAGACTC	-0.252

Sequence	PBM E-score
GAGTAGCA	0.0528
CAAGCCAA	-0.126
AGTACTGG	-0.129
ACATCGTA	0.114
ATTAAAGA	-0.0953
TCGTTCCA	-0.28
ATGTTTGC	0.031
ACATACGA	-0.0295
TCCGTGCA	0.241
GTGATGGA	-0.0732
ACACAGCG	-0.0524
AGGCCTGG	-0.246
TAGTCCAA	-0.206
CGTTCCAC	-0.0202
CGCGTCGA	0.147
ACAGCACG	0.184
AAAGGCAC	0.0891
CTAAAACC	0.291
CGGCCTAG	0.0646
ACGTACGT	-0.416
ACTACTCA	-0.0975
ACCGAGCG	0.384
